Results as given in patent US11685745B2, “Substituted benzoxazole and benzofuran compounds as PDE7 inhibitors” (Dart NeuroScience, LLC, priority 2017, dated 2023).

These compounds were tested against N-terminal truncated recombinant human PDE7B enzyme (Homo sapiens (Human), UniProt Q9NP56) (assay: biochemical).

`CC(C)C(CO)NC(=O)c1cc2cc(Cl)c3c(c2o1)C1(CCCCC1)NC(=O)N3` (centres unmarked) [Example 252, 5′-Chloro-N-(1-hydroxy-3-methylbutan-2-yl)-7′-oxo-7′,8′-dihydro-6′H-spiro[cyclohexane-1,9′-furo[2,3-f]quinazoline]-2′-carboxamide] and `Cc1nc(CNC(=O)c2cc3cc(Cl)c4c(c3o2)C2(CCCCC2)NC(=O)N4)n(C)c1C` [Example 343, 5′-Chloro-7′-oxo-N-[(trimethyl-1H-imidazol-2-yl)methyl]-7′,8′-dihydro-6′H-spiro[cyclohexane-1,9′-furo[2,3-f]quinazoline]-2′-carboxamide] fall in the same range of pIC50: 7.00 to 8.00 for the first, 7.00 to 8.00 for the second.

First: Cn1cc(CNC(=O)c2cc3cc(Cl)c4c(c3o2)C2(CCCCC2)NC(=O)N4)cn1 [Example 358, 5′-Chloro-N-[(1-methyl-1H-pyrazol-4-yl)methyl]-7′-oxo-7′,8′-dihydro-6′H-spiro[cyclohexane-1,9′-furo[2,3-f]quinazoline]-2′-carboxamide]
Second: O=C1Nc2c(Cl)cc3cc(C(=O)NCc4cccc(O)c4)oc3c2C2(CCCCC2)N1 [Example 432, 5′-Chloro-N-[(3-hydroxyphenyl)methyl]-7′-oxo-7′,8′-dihydro-6′H-spiro[cyclohexane-1,9′-furo[2,3-f]quinazoline]-2′-carboxamide]
The pIC50 of the first is higher: 7.00 to 8.00 for the first, 6.00 to 7.00 for the second.

First: O=C1Nc2c(Cl)cc3cc(CN4CCN(Cc5cccnc5)CC4)oc3c2C2(CCCCC2)N1 [Example 532, 5′-Chloro-2′-{[4-(pyridin-3-ylmethyl)piperazin-1-yl]methyl}-7′,8′-dihydro-6′H-spiro[cyclohexane-1,9′-furo[2,3-f]quinazoline]-7′-one]
Second: O=CN1CCN(Cc2cc3cc(Cl)c4c(c3o2)C2(CCCCC2)NC(=O)N4)CC1 [Example 517, 4-{5′-Chloro-7′-oxo-7′,8′-dihydro-6′H-spiro[cyclohexane-1,9′-furo[2,3-f]quinazoline]-2′-ylmethyl}piperazine-1-carbaldehyde]
The pIC50 of the first is lower: 6.00 to 7.00 for the first, 7.00 to 8.00 for the second.

`O=C1Nc2c(Cl)cc3nc(CN[C@@H]4CCCOC4)oc3c2C2(CCCCC2)N1` [Example 161, 5-Chloro-2-({[(3R)-oxan-3-yl]amino}methyl)-7,8-dihydro-6H-spiro[[1,3]oxazolo[5,4-f]quinazoline-9,1′-cyclohexane]-7-one] and `O=C1Nc2c(Cl)cc3nc(CN[C@H]4CCOC4)oc3c2C2(CCCCC2)N1` [Example 153] fall in the same range of pIC50: 7.00 to 8.00 for the first, 7.00 to 8.00 for the second.

`O=C1Nc2c(Cl)cc3nc(CNCC(O)C(F)F)oc3c2C2(CCCCC2)N1` (centres unmarked) [Example 149, 5-Chloro-2-{[(3,3-difluoro-2-hydroxypropyl)amino]methyl}-7,8-dihydro-6H-spiro[[1,3]oxazolo[5,4-f]quinazoline-9,1′-cyclohexane]-7-one] and `O=C1Nc2c(Cl)cc3nc(CNCCO)oc3c2C2(CCCCC2)N1` [Example 41, 5-Chloro-2-{[(2-hydroxyethyl)amino]methyl}-7,8-dihydro-6H-spiro[[1,3]oxazolo[5,4-f]quinazoline-9,1′-cyclohexane]-7-one] fall in the same range of pIC50: 7.00 to 8.00 for the first, 7.00 to 8.00 for the second.

Compared with `O=C1Nc2c(Cl)cc3nc(CN4CCC(O)CC4)oc3c2C2(CCCCC2)N1` [Example 34, 5-Chloro-2-[(4-hydroxypiperidin-1-yl)methyl]-7,8-dihydro-6H-spiro[[1,3]oxazolo[5,4-f]quinazoline-9,1′-cyclohexane]-7-one], `CC(C)N1CCN(Cc2nc3cc(Cl)c4c(c3o2)C2(CCCCC2)NC(=O)N4)CC1` [Example 93, 5-Chloro-2-{[4-(propan-2-yl)piperazin-1-yl]methyl}-7,8-dihydro-6H-spiro[[1,3]oxazolo[5,4-f]quinazoline-9,1′-cyclohexane]-7-one] is lower in pIC50: 7.00 to 8.00 for the first, 6.00 to 7.00 for the second. The first is the more potent here.

First: COc1cccc(N2CCN(C(=O)c3cc4cc(Cl)c5c(c4o3)C3(CCCCC3)NC(=O)N5)CC2)c1 [Example 454, 5′-Chloro-2′-[4-(3-methoxyphenyl)piperazine-1-carbonyl]-7′,8′-dihydro-6′H-spiro[cyclohexane-1,9′-furo[2,3-f]quinazoline]-7′-one]
Second: COc1cccc(CNC(=O)c2cc3cc(Cl)c4c(c3o2)C2(CCCCC2)NC(=O)N4)c1 [Example 410, 5′-Chloro-N-[(3-methoxyphenyl)methyl]-7′-oxo-7′,8′-dihydro-6′H-spiro[cyclohexane-1,9′-furo[2,3-f]quinazoline]-2′-carboxamide]
The pIC50 of the first is lower: 6.00 to 7.00 for the first, 7.00 to 8.00 for the second.

`COC1CCN(C(=O)c2nc3cc(Cl)c4c(c3o2)C2(CCCCC2)NC(=O)N4)CC1` [Example 7, 5′-Chloro-2′-(4-methoxypiperidine-1-carbonyl)-6′H-spiro[cyclohexane-1,9′-oxazolo[5,4-f]quinazolin]-7′(8′H)-one] and `COC[C@@H]1CCCN1C(=O)c1nc2cc(Cl)c3c(c2o1)C1(CCCCC1)NC(=O)N3` [Example 190, 5-Chloro-2-[(2S)-2-(methoxymethyl)pyrrolidine-1-carbonyl]-7,8-dihydro-6H-spiro[[1,3]oxazolo[5,4-f]quinazoline-9,1′-cyclohexane]-7-one] fall in the same range of pIC50: 7.00 to 8.00 for the first, 7.00 to 8.00 for the second.

`CN(Cc1ccc(-n2ccnc2)cc1)C(=O)c1cc2cc(Cl)c3c(c2o1)C1(CCCCC1)NC(=O)N3` [Example 448, 5′-Chloro-N-{[4-(1H-imidazol-1-yl)phenyl]methyl}-N-methyl-7′-oxo-7′,8′-dihydro-6′H-spiro[cyclohexane-1,9′-furo[2,3-f]quinazoline]-2′-carboxamide] and `CN(C)c1ccc(CNC(=O)c2cc3cc(Cl)c4c(c3o2)C2(CCCCC2)NC(=O)N4)cc1` [Example 303, 5′-Chloro-N-{[4-(dimethylamino)phenyl]methyl}-7′-oxo-7′,8′-dihydro-6′H-spiro[cyclohexane-1,9′-furo[2,3-f]quinazoline]-2′-carboxamide] fall in the same range of pIC50: 7.00 to 8.00 for the first, 7.00 to 8.00 for the second.

`COCC1(NC(=O)c2nc3cc(Cl)c4c(c3o2)C2(CCCCC2)NC(=O)N4)CCOCC1` [Example 215, 5-Chloro-N-[4-(methoxymethyl)oxan-4-yl]-7-oxo-7,8-dihydro-6H-spiro[[1,3]oxazolo[5,4-f]quinazoline-9,1′-cyclohexane]-2-carboxamide] and `CN(CC1CCOCC1)C(=O)c1nc2cc(Cl)c3c(c2o1)C1(CCCCC1)NC(=O)N3` [Example 186, 5-Chloro-N-methyl-N-(oxan-4-ylmethyl)-7-oxo-7,8-dihydro-6H-spiro[[1,3]oxazolo[5,4-f]quinazoline-9,1′-cyclohexane]-2-carboxamide] fall in the same range of pIC50: 7.00 to 8.00 for the first, 7.00 to 8.00 for the second.

First: COC[C@H]1CCCN1Cc1nc2cc(Cl)c3c(c2o1)C1(CCCCC1)NC(=O)N3 [Example 115, 5-Chloro-2-{[(2R)-2-(methoxymethyl)pyrrolidin-1-yl]methyl}-7,8-dihydro-6H-spiro[[1,3]oxazolo[5,4-f]quinazoline-9,1′-cyclohexane]-7-one]
Second: CC(C)COC1CN(Cc2nc3cc(Cl)c4c(c3o2)C2(CCCCC2)NC(=O)N4)C1 [Example 68, 5-Chloro-2-{[3-(2-methylpropoxy)azetidin-1-yl]methyl}-7,8-dihydro-6H-spiro[[1,3]oxazolo[5,4-f]quinazoline-9,1′-cyclohexane]-7-one]
The pIC50 of the first is higher: 7.00 to 8.00 for the first, 6.00 to 7.00 for the second. The first is the more potent here.

Compound `CNC(=O)CCN(C)Cc1cc2cc(Cl)c3c(c2o1)C1(CCCCC1)NC(=O)N3` [Example 497, 3-({5′-Chloro-7′-oxo-7′,8′-dihydro-6′H-spiro[cyclohexane-1,9′-furo[2,3-f]quinazoline]-2′-ylmethyl}(methyl)amino)-N-methylpropanamide] has a pIC50 of 7.00 to 8.00.

pIC50: −log10 of the molar value.
